Results as given in article PMC4336329 (PLoS ONE, 2015).
The campaign covered roughly 310,000 compounds. About 14,000 (4.5%) showed an effect of 50% or more. Effects have a minus sign here. The list shows a part of the results.

Target: human ether-à-go-go-related gene (hERG) potassium channel (human, UniProt Q12809)
Test: primary screen, population patch clamp on CHO cells stably expressing hERG
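Also: peak tail current of the secondary pulse compared with the same well before compound.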

Sequence of human ether-à-go-go-related gene (hERG) potassium channel (Q12809 whole entry, looked up): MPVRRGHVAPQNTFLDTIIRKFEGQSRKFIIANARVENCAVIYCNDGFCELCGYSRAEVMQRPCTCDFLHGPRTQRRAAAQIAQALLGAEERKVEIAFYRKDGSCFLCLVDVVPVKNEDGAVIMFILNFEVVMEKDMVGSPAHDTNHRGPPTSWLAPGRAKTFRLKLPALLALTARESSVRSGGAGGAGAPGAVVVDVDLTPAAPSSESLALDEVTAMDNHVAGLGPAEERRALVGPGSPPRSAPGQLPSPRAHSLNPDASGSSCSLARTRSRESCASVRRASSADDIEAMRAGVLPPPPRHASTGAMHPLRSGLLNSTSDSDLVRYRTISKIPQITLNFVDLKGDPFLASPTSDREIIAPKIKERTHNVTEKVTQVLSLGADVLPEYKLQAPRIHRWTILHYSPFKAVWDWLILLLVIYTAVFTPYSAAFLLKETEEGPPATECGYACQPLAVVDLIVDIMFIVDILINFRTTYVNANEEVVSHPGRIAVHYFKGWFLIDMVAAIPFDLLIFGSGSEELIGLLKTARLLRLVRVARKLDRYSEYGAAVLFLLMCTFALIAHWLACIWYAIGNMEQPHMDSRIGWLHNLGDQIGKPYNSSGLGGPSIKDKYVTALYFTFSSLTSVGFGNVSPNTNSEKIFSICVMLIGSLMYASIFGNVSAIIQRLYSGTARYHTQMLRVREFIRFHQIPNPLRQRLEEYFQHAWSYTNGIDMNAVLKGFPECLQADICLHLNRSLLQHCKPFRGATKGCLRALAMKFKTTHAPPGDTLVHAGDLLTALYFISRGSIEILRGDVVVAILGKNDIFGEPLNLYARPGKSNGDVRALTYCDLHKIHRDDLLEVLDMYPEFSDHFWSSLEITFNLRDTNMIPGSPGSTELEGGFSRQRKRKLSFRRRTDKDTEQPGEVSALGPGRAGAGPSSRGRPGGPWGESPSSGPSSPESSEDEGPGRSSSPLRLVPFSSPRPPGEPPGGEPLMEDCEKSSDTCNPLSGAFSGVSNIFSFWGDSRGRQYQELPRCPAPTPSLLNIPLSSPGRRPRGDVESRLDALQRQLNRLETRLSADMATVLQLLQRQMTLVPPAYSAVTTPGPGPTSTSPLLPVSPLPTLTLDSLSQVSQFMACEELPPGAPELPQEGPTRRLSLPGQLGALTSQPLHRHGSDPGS

Compared with CC(C)(C)N(Cc1ccccc1)C(=O)COC(=O)CNC(=O)c1ccco1, O=C(NCCc1ccccc1)c1ccnc(/C=N/O)c1 is lower in “hERG current change (%, negative = inhibition) at 10uM” value: -7.15% for the first, -19.2% for the second.

Compared with C=CCOC(=O)C(=O)/C=C/c1coc2ccccc2c1=O, Cn1nc(C(=O)Nc2cccc(C(=O)NC3CC3)c2)c2ccccc2c1=O is lower in “hERG current change (%, negative = inhibition) at 10uM” value: -10.2% for the first, -35.3% for the second.

Going from Cc1c(C(c2cccs2)c2c(C)n(C)n(-c3ccccc3)c2=O)c(=O)n(-c2ccccc2)n1C to CCn1c(NC(=O)C(C)C)c(-c2cccs2)c(=O)c2ccccc21, the “hERG current change (%, negative = inhibition) at 10uM” value falls from 7.83% to 4.24%.

First: O=C(CSc1nnc(NC(=O)c2ccccc2F)s1)Nc1ccccc1F
Second: O=C(CSc1ccc2ccccc2c1)Nc1nc2ccccc2[nH]1
The “hERG current change (%, negative = inhibition) at 10uM” value of the first is higher: 30.9% for the first, 1.81% for the second.

First: CCCCNC(=O)COC(=O)CNC(=O)c1cc(Cl)cc([N+](=O)[O-])c1
Second: O=C(CNC(=O)c1cccs1)NCC(=O)OCc1c(F)cccc1Cl
The “hERG current change (%, negative = inhibition) at 10uM” value of the first is lower: 5.47% for the first, 21.4% for the second.

Compared with O=C(COc1coc(CN2CCc3ccccc3C2)cc1=O)Nc1ccc(F)cc1F, CC(C(=O)N1CCc2ccccc21)N(C)CC(=O)Nc1cccc(F)c1 (stereo not shown) is lower in “hERG current change (%, negative = inhibition) at 10uM” value: -6.04% for the first, -24.7% for the second.

Compared with COc1ccc(NC(=O)c2ccc(F)cc2)cc1S(=O)(=O)Nc1cc(C)ccc1Br, COC(=O)CS(=O)(=O)c1ccsc1C(=O)Nc1ccc(F)cc1 is higher in “hERG current change (%, negative = inhibition) at 10uM” value: -7.74% for the first, 3.5% for the second.

Compared with CC1CCCCN1C(=S)Nc1ccc2nc3n(c(=O)c2c1)CCCCC3 (stereo not shown), O=C(Nc1ccc(S(=O)(=O)N2CCCC2)cc1)C1CCCCC1 is higher in “hERG current change (%, negative = inhibition) at 10uM” value: -59% for the first, 10.4% for the second.

Compared with O=C(CS(=O)(=O)Cc1ccccc1)NCC1CCCO1 (stereo not shown), Cc1ccc(CS(=O)(=O)Cc2ccc(C(=O)NCC3CCCO3)o2)cc1 (stereo not shown) is higher in “hERG current change (%, negative = inhibition) at 10uM” value: 4.95% for the first, 12% for the second.

First: O=C(CN1C(=O)CCSc2ccc(S(=O)(=O)N3CCCC3)cc21)Nc1ccccc1
Second: O=C(Nc1ncccc1O)c1cccc(S(=O)(=O)N2CCCC2)c1
The “hERG current change (%, negative = inhibition) at 10uM” value of the first is higher: 17.7% for the first, 2.37% for the second.

Compared with CCC(C)NC(=O)CSc1nc2c(sc(=S)n2-c2cc(Cl)ccc2OC)c(=O)[nH]1 (stereo not shown), COc1ccccc1-n1nnnc1SCC(=O)Nc1oc(C)c2c(C)n[nH]c(=O)c12 is lower in “hERG current change (%, negative = inhibition) at 10uM” value: 18.4% for the first, 0.431% for the second.

Compared with Cc1ccc(N(C(=O)c2ccccc2Cl)C2=NC(C)CS2)c(C)c1 (stereo not shown), Cc1ccc(S(=O)(=O)Nc2ccccc2C(=O)NCC2CCCO2)cc1 (stereo not shown) is lower in “hERG current change (%, negative = inhibition) at 10uM” value: 16.2% for the first, -15.3% for the second.

Compared with O=C(Nc1ccc(Br)c(Cl)c1)C1CC1, CC#CC(=O)N1CCC(C(=O)Nc2ccc(Oc3ccccc3)nc2)CC1 is higher in “hERG current change (%, negative = inhibition) at 10uM” value: -15.4% for the first, 1.55% for the second.

First: COc1ccc(N2CCN(S(=O)(=O)c3c[nH]c(=O)[nH]c3=O)CC2)cc1
Second: O=C(NCCS(=O)(=O)N1CCN(c2ccc(F)cc2)CC1)c1ccco1
The “hERG current change (%, negative = inhibition) at 10uM” value of the first is higher: 12.3% for the first, -62.2% for the second.

Compared with Cc1sc(NC(=O)CCCCC(=O)Nc2sc(C)c(C)c2C(=O)O)c(C(=O)O)c1C, CCOC(=O)c1oc2ccc(CNC(C)(C)C)c(Cl)c2c1C.O=C(O)C(=O)O is lower in “hERG current change (%, negative = inhibition) at 10uM” value: 2.57% for the first, -5.61% for the second.

Compared with Cc1ccccc1OCCCN1CCOCC1, CSc1cccc(NC(=S)NCCCN2CCN(c3ccc(F)cc3)CC2)c1 is lower in “hERG current change (%, negative = inhibition) at 10uM” value: 9.44% for the first, -66.7% for the second.

First: COc1ccc(CNC(=O)N2CCN(c3ccccc3)CC2)cc1
Second: c1ccc(-c2cnc(CN3CCN(c4ccccc4)CC3)o2)cc1
The “hERG current change (%, negative = inhibition) at 10uM” value of the first is higher: 26.4% for the first, 4.9% for the second.

First: COc1ccccc1C(=O)Nc1ccnn1C1CCN(Cc2ncc[nH]2)CC1
Second: COc1ccccc1C(=O)C1CCCN(C(=O)c2cc(C(C)C)no2)C1 (stereo not shown)
The “hERG current change (%, negative = inhibition) at 10uM” value of the first is lower: -16.3% for the first, -5.26% for the second.

Going from O=C(CCc1nnc(CCc2ccccc2)o1)NC(c1cccnc1)C(F)(F)F (stereo not shown) to COc1ccccc1NC(=O)c1sc2nc(Cc3ccccc3)cc(C(F)(F)F)c2c1N, the “hERG current change (%, negative = inhibition) at 10uM” value falls from -3.45% to -7.85%.

Going from CCN(CC(=O)NCc1ccc(Cl)cc1)C(=O)Cc1ccccc1[N+](=O)[O-] to CC(=O)c1c(C)[nH]c(C(=O)OCC(=O)NCc2ccc(Cl)cc2)c1C, the “hERG current change (%, negative = inhibition) at 10uM” value rises from -63.4% to 0.997%.

Going from Cc1cc(NC(=O)CCCn2nc([N+](=O)[O-])cc2C)no1 to Cc1ccc(S(=O)(=O)N/N=C\c2cc3c(cc2[N+](=O)[O-])OCO3)cc1, the “hERG current change (%, negative = inhibition) at 10uM” value rises from 5.57% to 15.4%.

First: COc1ccc(/C=c2\sc3nc(=O)c(C)nn3c2=O)c(OC)c1
Second: COc1ccc(C(=O)NC(=S)NCc2ccc(-c3nc4ccccc4o3)cc2)cc1OC
The “hERG current change (%, negative = inhibition) at 10uM” value of the first is higher: 23% for the first, 12.2% for the second.

Compared with Cl.Clc1ccc(CSc2nnc([C@@H]3CCCN3)o2)cc1Cl, Cc1nnc(SCC(=O)N/N=C/c2cc(Cl)c(O)c(Cl)c2)s1 is higher in “hERG current change (%, negative = inhibition) at 10uM” value: 1.04% for the first, 10.2% for the second.

Compared with COc1cc(S(=O)(=O)NC2CCCC2)c(OC)cc1Cl, COc1cc(/C=N/NC(=O)c2cccc(S(=O)(=O)N3CCCC3)c2)ccc1O is lower in “hERG current change (%, negative = inhibition) at 10uM” value: -0.849% for the first, -35.5% for the second.

First: CC1CC(C)CN(C(=O)c2ccccc2Nc2ccc(SC(F)F)cc2)C1 (stereo not shown)
Second: CCc1ccc(NC(=S)N2CCC(NC(=O)c3ccccc3)CC2)cc1
The “hERG current change (%, negative = inhibition) at 10uM” value of the first is higher: 0.904% for the first, -2.42% for the second.

Going from CC(C)NC(=O)CNc1ccc(C(F)(F)F)cc1[N+](=O)[O-] to O=C(Nc1cccc(C(F)(F)F)c1)c1ccccc1NC(=O)C1CCCCC1, the “hERG current change (%, negative = inhibition) at 10uM” value falls from 15.1% to 12.3%.

Compared with CSCCC(NC(=O)COc1ccccc1)C(=O)OCC(=O)c1cc2ccccc2o1 (stereo not shown), Cc1c(OCC(=O)N[C@@H](Cc2ccccc2)C(=O)O)ccc2c1oc(=O)c1ccccc12 is lower in “hERG current change (%, negative = inhibition) at 10uM” value: 8.62% for the first, -7.9% for the second.

First: O=S(=O)(c1cc(Cl)cc(Cl)c1O)N1CCC2(CC1)OCCO2
Second: O=c1[nH]nc(N/N=C/c2ccc(Cl)cc2Cl)c(=O)[nH]1
The “hERG current change (%, negative = inhibition) at 10uM” value of the first is higher: 9.71% for the first, -1.17% for the second.

Going from Clc1ccccc1-c1nnc2sc(-c3cccs3)nn12 to Nc1nncn1C(=O)c1ccccc1Cl, the “hERG current change (%, negative = inhibition) at 10uM” value rises from -4.57% to 8.43%.

Compared with CCC(C)(C)NC(=O)C(c1ccco1)N(C(=O)c1csnn1)c1cccc(F)c1 (stereo not shown), O=C(COC(=O)CCC(=O)c1cccs1)Nc1cccc(F)c1 is higher in “hERG current change (%, negative = inhibition) at 10uM” value: -24.4% for the first, 7.88% for the second.

Going from Nc1ccc(C(=O)[O-])cc1.O.[Na+] to CCC(=O)c1ccc(OCc2ccc(C#N)cc2)cc1, the “hERG current change (%, negative = inhibition) at 10uM” value rises from 3.37% to 7.33%.

Compared with OC(CN1CCN(C(c2ccccc2)c2ccccc2)CC1)c1ccccc1 (stereo not shown), O=C(NN=C(Cc1ccccc1)Cc1ccccc1)c1ccccc1F is higher in “hERG current change (%, negative = inhibition) at 10uM” value: -30.8% for the first, 15.1% for the second.

Compared with Cc1c(CCC(=O)O)c(=O)oc2cc(OCc3cccc(Cl)c3)ccc12, C/C(CC(=O)Nc1ccc2c(c1)OCCO2)=N\NC(=O)COc1ccc(C)cc1 is lower in “hERG current change (%, negative = inhibition) at 10uM” value: 33.2% for the first, -12.7% for the second.

Going from COc1ccc(CCNC(=O)[C@H](C)NC(=O)[C@@H]2CSC3c4ccccc4C(=O)N32)cc1 (stereo partly shown) to COc1ccc(C(=O)NCC23C=CC(O2)C2C(=O)N(Cc4ccccc4)C(=O)C23)cc1 (stereo not shown), the “hERG current change (%, negative = inhibition) at 10uM” value falls from -3.88% to -17.1%.

Compared with CC(CNC(=O)CN1C(=O)NC2(CCCCC2)C1=O)c1ccccc1 (stereo not shown), CCCS(=O)(=O)N1CCC(C(=O)NCCc2ccccc2)CC1 is lower in “hERG current change (%, negative = inhibition) at 10uM” value: 3.82% for the first, 1.42% for the second.

First: O=C(c1cc(-c2cccnc2)nc2ccccc12)N1CCCc2ccccc21
Second: Cc1ccc(Sc2nc(-c3ccccc3)ccc2C#N)cc1
The “hERG current change (%, negative = inhibition) at 10uM” value of the first is lower: -13.2% for the first, 7.27% for the second.

Compared with COc1ccccc1CNS(=O)(=O)c1ccc2c(c1)NC(=O)C(C)S2 (stereo not shown), Cc1ccc(S(=O)(=O)NCc2cn3ccccc3n2)c(C)c1 is higher in “hERG current change (%, negative = inhibition) at 10uM” value: -22% for the first, 14.7% for the second.

First: N#C/C(=C(/O)c1ccc(Br)s1)c1nc2ccccc2[nH]1
Second: CCNc1sc(C(=O)c2cccs2)c(N)c1-c1nc2ccccc2s1
The “hERG current change (%, negative = inhibition) at 10uM” value of the first is lower: 7.16% for the first, 10.6% for the second.

Compared with CC(C)N1CCN(Cc2cccn2-c2ccccn2)CC1CCO (stereo not shown), CC(C)Sc1cc(N2CCCC2)nc(-c2ccccc2)n1 is higher in “hERG current change (%, negative = inhibition) at 10uM” value: -31.2% for the first, -5.24% for the second.

First: CCCSc1nc(SCC(=O)NCc2ccccc2)c2c3c(sc2n1)COC(C)(C)C3
Second: Cc1ccc(C)c(S(=O)(=O)C(C#N)c2nc3ccccc3nc2N2CC(C)OC(C)C2)c1 (stereo not shown)
The “hERG current change (%, negative = inhibition) at 10uM” value of the first is higher: 7.66% for the first, 4.01% for the second.

First: O=C(CCCCn1c(=O)c2ccccc2n(CC(=O)NC2CCCC2)c1=O)NC1CCCC1
Second: O=C(COc1ccc(C2SCCS2)cc1)NNC(=O)C(Cl)Cl
The “hERG current change (%, negative = inhibition) at 10uM” value of the first is lower: -1.53% for the first, 9.56% for the second.

First: COc1ccccc1Nc1nc(N)nc(CN2CCN(Cc3ccc4c(c3)OCO4)CC2)n1
Second: CN(C)/C=C(\C(=O)c1cccc(Cl)c1)c1nnnn1-c1ccccc1
The “hERG current change (%, negative = inhibition) at 10uM” value of the first is lower: -78.1% for the first, 1.84% for the second.

Going from Oc1ccccc1-c1cc(-c2ccco2)[nH]n1 to CSc1ncc(-c2ccc(Cl)cc2)[nH]1, the “hERG current change (%, negative = inhibition) at 10uM” value falls from 2.39% to -1.02%.

First: CN(C)c1ccc(P(=O)(CC(=O)N/N=C/c2ccc(C#N)cc2)OCCCl)cc1 (stereo not shown)
Second: Cc1csc(NC(=O)c2cccc([N+](=O)[O-])c2C(=O)O)n1
The “hERG current change (%, negative = inhibition) at 10uM” value of the first is lower: -23.9% for the first, 8.84% for the second.
